Experimental data: PubChem BioAssay AID504333 (National Center for Advancing Translational Sciences (NCATS), 2011)
Among all 360,000 compounds or so, about 16,000 (4.4%) were called active. Inconclusive results, whose numbers are uncertain, are shown with a selection of clear calls. Calls follow the shape of the dose curve; as a rule, active = well fitted inhibition curve with a large enough effect; inconclusive = small, poorly fitted or top-dose-only effect; inactive = no such curve, though single readings can be large or run the other way. Where the call is inconclusive, the potency comes from a doubtful curve fit.

The compounds below were run against Bromodomain adjacent to zinc finger domain protein 2B (Homo sapiens) (UniProt Q9UIF8) (assay: qHTS Assay for Inhibitors of BAZ2B). Settings: AlphaScreen BAZ2B-H3K14Ac peptide displacement; activity change, negative = inhibition: at 114 µM (top of the series).
UniProt Q9UIF8, sequence (Q9UIF8 whole entry, looked up, the tested form may be a part): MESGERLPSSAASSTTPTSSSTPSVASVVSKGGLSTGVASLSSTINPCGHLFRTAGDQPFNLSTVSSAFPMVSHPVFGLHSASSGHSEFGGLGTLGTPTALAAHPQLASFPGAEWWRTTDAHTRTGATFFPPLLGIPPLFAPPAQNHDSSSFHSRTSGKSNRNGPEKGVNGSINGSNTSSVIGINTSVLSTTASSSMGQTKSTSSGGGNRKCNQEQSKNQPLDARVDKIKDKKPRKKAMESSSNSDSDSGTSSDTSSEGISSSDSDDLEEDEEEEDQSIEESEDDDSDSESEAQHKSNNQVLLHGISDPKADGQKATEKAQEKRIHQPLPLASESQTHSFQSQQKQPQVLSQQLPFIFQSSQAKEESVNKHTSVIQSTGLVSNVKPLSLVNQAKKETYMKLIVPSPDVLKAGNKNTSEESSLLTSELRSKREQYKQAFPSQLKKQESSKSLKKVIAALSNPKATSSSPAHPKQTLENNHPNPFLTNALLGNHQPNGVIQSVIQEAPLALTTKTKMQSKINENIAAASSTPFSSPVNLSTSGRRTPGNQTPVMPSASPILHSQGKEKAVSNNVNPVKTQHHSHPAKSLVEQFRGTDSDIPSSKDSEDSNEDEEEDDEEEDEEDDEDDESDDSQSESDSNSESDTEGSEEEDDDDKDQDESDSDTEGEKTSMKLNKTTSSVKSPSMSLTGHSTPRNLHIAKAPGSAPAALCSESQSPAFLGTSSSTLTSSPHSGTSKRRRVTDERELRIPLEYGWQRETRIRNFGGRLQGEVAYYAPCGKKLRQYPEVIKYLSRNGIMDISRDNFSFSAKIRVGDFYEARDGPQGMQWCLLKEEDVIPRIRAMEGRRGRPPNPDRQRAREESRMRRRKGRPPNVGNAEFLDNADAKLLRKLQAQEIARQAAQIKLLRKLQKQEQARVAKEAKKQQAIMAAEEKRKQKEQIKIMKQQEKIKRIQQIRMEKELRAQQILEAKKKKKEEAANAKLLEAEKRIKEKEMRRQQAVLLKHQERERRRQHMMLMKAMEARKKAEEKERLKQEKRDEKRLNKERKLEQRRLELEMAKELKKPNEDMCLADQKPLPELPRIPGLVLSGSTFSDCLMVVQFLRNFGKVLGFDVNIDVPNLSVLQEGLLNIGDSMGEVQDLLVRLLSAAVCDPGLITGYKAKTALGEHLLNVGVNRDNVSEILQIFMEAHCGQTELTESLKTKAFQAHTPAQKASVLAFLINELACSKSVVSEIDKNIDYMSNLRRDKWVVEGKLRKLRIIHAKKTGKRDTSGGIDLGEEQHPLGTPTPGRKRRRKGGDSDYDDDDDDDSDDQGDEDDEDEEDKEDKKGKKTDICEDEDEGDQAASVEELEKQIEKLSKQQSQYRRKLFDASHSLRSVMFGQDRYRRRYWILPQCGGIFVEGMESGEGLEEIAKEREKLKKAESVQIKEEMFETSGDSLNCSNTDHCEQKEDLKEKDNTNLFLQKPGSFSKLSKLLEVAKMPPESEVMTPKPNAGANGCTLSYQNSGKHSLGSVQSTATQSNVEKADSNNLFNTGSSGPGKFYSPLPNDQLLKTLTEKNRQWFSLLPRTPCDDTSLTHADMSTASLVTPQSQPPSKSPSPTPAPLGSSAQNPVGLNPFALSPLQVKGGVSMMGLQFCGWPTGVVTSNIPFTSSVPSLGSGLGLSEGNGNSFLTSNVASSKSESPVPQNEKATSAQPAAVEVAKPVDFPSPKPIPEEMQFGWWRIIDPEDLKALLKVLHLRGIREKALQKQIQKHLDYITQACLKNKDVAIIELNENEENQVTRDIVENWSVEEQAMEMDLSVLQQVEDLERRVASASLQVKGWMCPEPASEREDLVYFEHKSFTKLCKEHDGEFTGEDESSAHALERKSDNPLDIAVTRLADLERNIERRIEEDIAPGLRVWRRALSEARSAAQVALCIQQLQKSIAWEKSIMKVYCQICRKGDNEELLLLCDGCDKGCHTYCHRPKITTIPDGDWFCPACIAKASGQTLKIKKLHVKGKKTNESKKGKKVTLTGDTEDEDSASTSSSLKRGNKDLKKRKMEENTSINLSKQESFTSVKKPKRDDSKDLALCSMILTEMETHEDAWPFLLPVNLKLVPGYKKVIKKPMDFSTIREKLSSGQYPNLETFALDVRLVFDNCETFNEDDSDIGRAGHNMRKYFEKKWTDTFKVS
Procedure, shortened: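 Compounds, titrated to a top concentration of 110 uM, were incubated 30 min at room temperature with preformed BAZ2B/acetyl-K14 H3 peptide complex (50 nM each). Proximity signal was measured by AlphaScreen after 20 min with beads.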
% is scaled to controls: 0 for no effect and ±100 for the full control effect; potency is read from the fitted curve at half-maximal effect; tags tell the direction and shape of the fitted curve.
Also: nearly all actives have a fitted effect of over 60% in size.

`C=CCOc1ccc(/C(O)=C2/C(=O)C(=O)N(CCCn3ccnc3)C2c2ccco2)cc1` (stereo not drawn) was tested. Which Potency did it give?
Its Potency is active: 50.1 µM.

How did the “activity change, negative = inhibition” value turn out when `CCOC(=O)CC(=O)CSc1[nH]c(=O)cc(C)c1C#N` was run?
Its value is inactive: -30.3%.

Which Potency does the source give for `CSc1ccc(CN2CCCC(CO)(Cc3ccccc3)C2)cc1` (stereo not drawn) here?
The Potency was inconclusive: 100 µM [inhibitor, single point].

For `O=C(CN1C(=O)CC(c2ccco2)Sc2ccccc21)NCc1ccc2c(c1)OCO2` (stereo not drawn), which Potency is on record?
The Potency was inconclusive: 50.1 µM [inhibitor, partial curve].

With `Cc1ccc(Cl)cc1N1CCN(C(=O)C2CCCN(Cc3nc(-c4cccc(Cl)c4)oc3C)C2)CC1` (stereo not drawn) as the compound, how does the Potency read?
Its Potency is inconclusive: 56.2 µM [inhibitor, partial curve, poor fit].

For `CC(C)NCc1cccc([N+](=O)[O-])c1`, which Potency is on record?
Its Potency is active: 56.2 µM.

How did the “activity change, negative = inhibition” value turn out when `COc1cc(S(=O)(=O)n2cnc3ccccc32)ccc1Br` was run?
The value was inactive: -7.81%.

Which Potency does the source give for `CCCc1ccc(OCCNC(=O)c2ccccc2Br)cc1` here?
The Potency was inconclusive: 100 µM [inhibitor, single point].

With `CNC(=S)N(CCc1c(C)[nH]c2ccc(C)cc12)Cc1cccnc1` as the compound, how does the Potency read?
The Potency was inconclusive: 89.1 µM [inhibitor, single point].

For `O=C(O)C(Cc1ccccc1)N1C(=O)/C(=C/c2cccs2)SC1=S` (stereo not drawn), which Potency is on record?
The Potency was inconclusive: 39.8 µM [inhibitor, partial curve].

How did the Potency turn out when `Cc1cccc(C2c3[nH]c4ccccc4c3CCN2C(=O)c2cc(-c3cccn3C)n[nH]2)n1` (stereo not drawn) was run?
The Potency was active: 12.6 µM.

For `CCOc1ccc(NC(=O)CN(C)S(=O)(=O)c2ccc3[nH]c4c(c3c2)CCCC4)cc1`, which Potency is on record?
Its Potency is inconclusive: 31.6 µM [inhibitor, full curve, poor fit].

Which Potency does the source give for `Oc1c(C(Nc2ccccn2)c2cccnc2)cc(Cl)c2cccnc12` (stereo not drawn) here?
Its Potency is active: 11.2 µM.

With `COc1ccc(N2CCN(Cc3cc4c(cc3O)CCC4)CC2)cc1` as the compound, how does the Potency read?
Its Potency is active: 31.6 µM.

With `COC(=O)c1cc2sc(C)cc2n1CC(=O)Nc1ccc(C)cc1Cl` as the compound, how does the “activity change, negative = inhibition” value read?
Its value is inactive: 0.513%.

Which Potency does the source give for `COc1ccc(C(=O)NNC(=S)NC(=O)c2cc(-c3ccccc3)nc3ccccc23)cc1` here?
Its Potency is inconclusive: 79.4 µM [inhibitor, single point].

How did the activity change, negative = inhibition turn out when `CC12CC3CC(C)(C1)CC(C(=O)Nc1nn[nH]n1)(C3)C2` was run?
The activity change, negative = inhibition was inconclusive: -102% [inhibitor].

For `Cc1cc(/C=N/NC(=O)CC2(C)OCCO2)c(C)n1-c1ccc(Cl)c(Cl)c1`, which Potency is on record?
Its Potency is inconclusive: 79.4 µM [inhibitor, single point].

`COc1ccc(CC(NC(C)=O)C(=O)NC2CCN(S(=O)(=O)c3ccc(NC(C)=O)cc3)CC2)cc1OC` (stereo not drawn) was tested. Which Potency did it give?
Its Potency is inconclusive: 8.91 µM [inhibitor, full curve, poor fit].

For `COc1ccc(N2CCN(Cc3nc(N)nc(N4CCCc5ccccc54)n3)CC2)cc1`, which Potency is on record?
Its Potency is active: 11.2 µM.

`CCc1cccc(OCC(=O)Nc2ccc(S(=O)(=O)Nc3ccccn3)cc2)c1` was tested. Which Potency did it give?
The Potency was inconclusive: 79.4 µM [inhibitor, single point].

Which Potency does the source give for `Cc1ccc(-c2cc(C(F)(F)F)n3nc(C(=O)Nc4ccon4)cc3n2)cc1C` here?
Its Potency is inconclusive: 89.1 µM [inhibitor, single point].

With `COc1ccc(CNC(=O)c2cc(-c3ccncc3)nc3c(C)cc(C)cc23)cc1OC` as the compound, how does the Potency read?
The Potency was inconclusive: 79.4 µM [inhibitor, single point].

With `Cc1cccc(C)c1NC(=O)CN1C(=O)c2ccccc2Sc2ncccc21` as the compound, how does the “activity change, negative = inhibition” value read?
Its value is inactive: -14.2%.

For `Cc1ccccc1Nc1scc(-c2ccc(Br)cc2)[n+]1-c1ccccc1C`, which Potency is on record?
The Potency was active: 11.2 µM.

For `COc1ccc(C(=O)C2CCCN(C(=O)CCc3scnc3C)C2)c(C)c1` (stereo not drawn), which “activity change, negative = inhibition” value is on record?
The value was inactive: 28.5%.

With `Cc1cc(C)c(C#N)c(SCc2nnc(-c3ccccc3[N+](=O)[O-])o2)n1` as the compound, how does the Potency read?
The Potency was inconclusive: 17.8 µM [inhibitor, partial curve].

How did the Potency turn out when `C=CCN1C(=O)C(CC(=O)O)SC1=Nc1c(C)n(C)n(-c2ccccc2)c1=O` (stereo not drawn) was run?
Its Potency is inconclusive: 12.6 µM [inhibitor, single point].

How did the Potency turn out when `C/C(=N\NC(=O)COc1ccccc1[N+](=O)[O-])c1cccc(NC(=O)c2ccncc2)c1` was run?
Its Potency is inconclusive: 70.8 µM [inhibitor, single point].

For `C#CCOCCOCCOCCNc1nc(OC)nc(N2CCN(C(=O)[C@H](CCCCN)n3cc(C(N)CO)nn3)CC2)n1` (stereo partly drawn), which Potency is on record?
The Potency was inconclusive: 89.1 µM [inhibitor, single point].

Which “activity change, negative = inhibition” value does the source give for `CCn1cc(C(=O)Nc2ccc(C(C)C)cc2)c2cc(OC)c(OC)cc2c1=O` here?
The value was inactive: 0.123%.

For `O=S(=O)(Nc1cccc(-c2cn3c(n2)SCC3)c1)c1ccc(F)cc1F`, which Potency is on record?
Its Potency is inconclusive: 50.1 µM [inhibitor, partial curve].

For `CCCS(=O)(=O)c1nc(S(=O)(=O)c2ccc(C)cc2)c(NCCCn2ccnc2)s1`, which Potency is on record?
The Potency was inconclusive: 56.2 µM [inhibitor, partial curve].

With `NC(=O)CC(NC(=O)Cc1cccc2ccccc12)c1ccc(N2CCN(c3ccccn3)CC2)c([N+](=O)[O-])c1` (stereo not drawn) as the compound, how does the Potency read?
The Potency was inconclusive: 89.1 µM [inhibitor, single point].

Which “activity change, negative = inhibition” value does the source give for `Cc1ccc(CCNC(=O)c2cc3c(=O)n(C)c4ccccc4c3n2C)cc1` here?
The value was inactive: -15.4%.

How did the Potency turn out when `Cc1csc2nc(COC(=O)c3cccc(N(C)C)c3)cc(=O)n12` was run?
Its Potency is inconclusive: 89.1 µM [inhibitor, single point].

With `CCOc1ccc(NC(=O)c2ccc(-c3csc(C)n3)cc2)cc1` as the compound, how does the Potency read?
Its Potency is inconclusive: 1.41 µM [inhibitor, full curve, poor fit].

With `COCC(C)n1c(C)cc(C(=O)CSc2nc(C)c(C)c(C)n2)c1C` (stereo not drawn) as the compound, how does the Potency read?
The Potency was inconclusive: 89.1 µM [inhibitor, single point].

With `CC(=O)c1cccc(NC(=O)CSc2nc3c(=O)n(C)c(=O)n(C)c3n2C)c1` as the compound, how does the “activity change, negative = inhibition” value read?
The value was inactive: -1.81%.

How did the Potency turn out when `COc1cccc(CNc2ccc3[nH]c(=O)[nH]c3c2)c1OCc1ccc(F)cc1` was run?
The Potency was active: 44.7 µM.

How did the “activity change, negative = inhibition” value turn out when `CN(CCCNC(=O)C1CCC(=O)N1Cc1ccc(F)cc1)c1ccccc1` (stereo not drawn) was run?
The value was inactive: -4.68%.

Which Potency does the source give for `Cc1ccc(NC(=O)CSc2nnc(-c3cccs3)n2Cc2ccco2)cc1` here?
The Potency was inconclusive: 44.7 µM [inhibitor, partial curve].

Which Potency does the source give for `Cc1cc(NC(=O)CN2CCN(c3ncccn3)CC2)no1` here?
Its Potency is active: 56.2 µM.
